# Data from the supplement of paper PMC8183993.
# Counter-ions that a name gives are not always drawn. ± gives the standard deviation of the averaged measurements. Whole data set: some 3,100 compounds, median “mean cytoplasmic OPP incorporation (global translation) relative to DMSO” near 100, cut for the lowest 2% near 56. The list shows a part of the results.
# Tested on: U2OS
# Experiment: mean cytoplasmic OPP incorporation (global translation) relative to DMSO (% of DMSO); higher = more protein synthesis
# Settings: 10 µM; 24 h
# Procedure: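 Primary image-based screen in U2OS cells: compounds at 10 uM for 24 h, then a 1 h o-propargyl-puromycin (OPP) pulse, click labelling, and high-throughput microscopy. Mean cytoplasmic OPP intensity and nuclei count were normalised to DMSO wells within each plate (DMSO = 100) and averaged over triplicate plates.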
row,SMILES,mean cytoplasmic OPP incorporation
1,COC(=O)N[C@H](C(=O)N[C@@H](Cc1ccccc1)[C@@H](O)CN(Cc1ccc(-c2ccccn2)cc1)NC(=O)[C@@H](NC(=O)OC)C(C)(C)C)C(C)(C)C [Atazanavir sulfate],113
2,N[C@H](C(=O)O)[C@@H]1CC(Cl)=NO1 [Acivicin],69.7
3,CC(=O)Oc1ccccc1C(=O)Oc1ccccc1C(=O)O [Acetylsalicylsalicylic acid],106
4,CNC(=O)c1c(I)c(C(=O)NCC(=O)Nc2c(I)c(C(=O)O)c(I)c(C(=O)NCCO)c2I)c(I)c(N(C)C(C)=O)c1I [Ioxaglic acid],107
5,C[C@H](Cn1cnc2c(N)ncnc21)OCP(=O)(O)O [Tenofovir (Viread)],99.5
6,CCCCNc1cc(C(=O)O)cc(S(N)(=O)=O)c1Oc1ccccc1 [Bumetanide],104
7,O=c1ccn([C@@H]2O[C@H](CO)[C@@H](O)[C@H]2O)c(=O)[nH]1 [Uridine],95.9
8,COc1ccc2[nH]c(-c3ccccc3)c(CCNC(C)=O)c2c1 [2-Phenylmelatonin],105
9,O=C(NCCCN1CCCCCC1)C(c1ccccc1)C1CCCCC1 (configuration not stated),113
10,CC(C)n1c(/C=C/C(O)CC(O)CC(=O)O)c(-c2ccc(F)cc2)c2ccccc21 (configuration not stated) [Fluvastatin sodium (Lescol)],105
11,CC(C)n1c(/C=C/C(O)CC(O)CC(=O)O)c(-c2ccc(F)cc2)c2ccccc21 (configuration not stated) [Fluvastatin sodium salt],107
12,O=C1CCC[C@@H]2[C@H]3CCC[N+]4([O-])CCC[C@@H](CN12)[C@@H]34 (some centres not stated) [Oxymatrine (Matrine N-oxide)],109
13,COC(=O)C(Cc1ccc(OCCn2c(=O)sc3cc(C(=O)c4ccccc4)ccc32)cc1)C(=O)OC,105
14,COc1cccc2cc(-c3nc([C@H]4CC[C@H](C(=O)O)CC4)n4ncnc(N)c34)[nH]c12,73.7
15,CC[C@H](C)C(=O)O[C@H]1C[C@@H](C)C=C2C=C[C@H](C)[C@H](CC[C@@H]3C[C@@H](O)CC(=O)O3)[C@H]21 [Lovastatin (Mevacor)],107
16,CC[C@H](C)C(=O)O[C@H]1C[C@@H](C)C=C2C=C[C@H](C)[C@H](CC[C@@H]3C[C@@H](O)CC(=O)O3)[C@H]21 [Lovastatin],96.9 ± 15
17,Cc1c(C)c2c(c(C)c1O)CCC(C)(C(=O)O)O2 (configuration not stated) [Trolox],98.6 ± 4.8
18,CC1(c2ccccc2)OC(C(=O)O)=CC1=O (configuration not stated) [Acifran],102
19,CCN(CC)CCOC(=O)c1ccc(N)cc1 [Procaine hydrochloride],90.1
20,O=C1Nc2ccc(-c3cccnc3)cc2/C1=C/c1ccc[nH]1 [JAK3 Inhibitor VI],90
21,COc1cc(C2Oc3cc([C@H]4Oc5cc(O)cc(O)c5C(=O)[C@@H]4O)ccc3OC2CO)ccc1O (some centres not stated) [Silibinin (Silybin)],118
22,O=c1[nH]c2cc(C(F)(F)F)ccc2n1-c1cc(C(F)(F)F)ccc1O,96.7
23,CN(C)CCn1nnnc1SCC1=C(C(=O)O)N2C(=O)[C@@H](NC(=O)Cc3csc(N)n3)[C@H]2SC1 [Cefotiam hydrochloride],98.6
24,O=c1cc(-c2ccccc2)oc2cc(O)c(O)c(O)c12 [Baicalein],109 ± 13

row,SMILES,mean cytoplasmic OPP incorporation
1,O=C(O)CCC/C=C\CC1C(O)CC(O)C1/C=C/C(O)COc1cccc(Cl)c1 (racemic) [(±)-Cloprostenol sodium salt],98.9
2,O=C(O)Cc1cccc(OCCCN(Cc2cccc(C(F)(F)F)c2Cl)CC(c2ccccc2)c2ccccc2)c1 [GW 3965 hydrochloride],97
3,CC(=O)O[C@H]1C[C@@]2(C)[C@@H](C[C@@H](O)[C@H]3[C@@]4(C)CC[C@@H](O)[C@@H](C)[C@@H]4CC[C@@]32C)/C1=C(\CCC=C(C)C)C(=O)O [Fusidic acid sodium salt],108
4,"N[C@@H](Cc1cc(I)c(Oc2ccc(O)cc2)c(I)c1)C(=O)O [3,5-Diiodo-L-thyronine]",103
5,C[C@]1(c2nc3c(C(N)=O)cccc3[nH]2)CCCN1 [ABT-888 (Veliparib)],101
6,CC(=O)N[C@@H](CS)C(=O)O [N-Acetyl-Cysteine],102
7,CC(=O)N[C@@H](CS)C(=O)O [Acetylcysteine],104
8,NCCCCCNCC12CC3CC(CC(C3)C1)C2 [IEM 1754 dihydrobroMide],104
9,CCNC(=O)CCC/C=C\C[C@@H]1[C@@H](/C=C/[C@@H](O)CCc2ccccc2)[C@H](O)C[C@@H]1O [Bimatoprost],104
10,C[C@]12C[C@H](O)[C@H]3[C@@H](CCC4=CC(=O)CC[C@@]43C)[C@@H]1CC[C@@H]2C(=O)CO [Corticosterone],98
11,COc1ccc(S(=O)(=O)Nc2cccnc2Nc2ccc(O)cc2)cc1,90.3
12,Cc1ccc(NC(=O)c2cccc(N(C)C)c2)cc1NC(=O)c1ccc(O)cc1,102.6 ± 0.94
13,O=C1NCCc2[nH]c(-c3ccncc3)cc21,49.9 ± 13
14,CC[C@H]1OC(=O)C[C@@H](O)[C@H](C)[C@@H](O[C@@H]2O[C@H](C)[C@@H](O[C@H]3C[C@@](C)(O)[C@@H](O)[C@H](C)O3)[C@H](N(C)C)[C@H]2O)[C@@H](CC=O)C[C@@H](C)C(=O)/C=C/C(C)=C/[C@@H]1CO[C@@H]1O[C@H](C)[C@@H](O)[C@@H](OC)[C@H]1OC [Tylosin tartrate],99.3
15,CC[C@H]1OC(=O)C[C@@H](O)[C@H](C)[C@@H](O[C@@H]2O[C@H](C)[C@@H](O[C@H]3C[C@@](C)(O)[C@@H](O)[C@H](C)O3)[C@H](N(C)C)[C@H]2O)[C@@H](CC=O)C[C@@H](C)C(=O)/C=C/C(C)=C/[C@@H]1CO[C@@H]1O[C@H](C)[C@@H](O)[C@@H](OC)[C@H]1OC [Tylosin],107
16,O=C(/C=C/c1ccc(O)c(O)c1)c1ccc(O)cc1O [Butein],99.1 ± 3.7
17,COC(=O)C1=C(C)NC(C)=C([N+](=O)[O-])C1c1ccccc1C(F)(F)F (racemic),114
18,CCc1ccc2c(-c3cccc(Cl)c3)nc(=O)n(CC)c2n1,106
19,O=C(CCCCCCC(=O)Nc1ccccc1)NO [Vorinostat],41.9
20,O=c1cc(-c2ccccc2)oc2cc(O)cc(O)c12 [Chrysin],90.1
21,Nc1c2c(nc3ccccc13)CCCC2 [Tacrine hydrochloride],91.34 ± 0.2
22,O=c1sn(-c2cccc3ccccc23)c(=O)n1Cc1ccccc1 [Tideglusib],101
23,C/C(=C(\CCOP(=O)(O)O)SC(=O)c1ccccc1)N(C=O)Cc1cnc(C)nc1N [Benfotiamine],105
24,COc1cc2/c(=N/c3ccc(Br)cc3F)nc[nH]c2cc1OCC1CCN(C)CC1 [Vandetanib (Zactima)],106

row,SMILES,mean cytoplasmic OPP incorporation
1,Cc1cc(OCCCS(C)(=O)=O)cc(C)c1-c1cccc(COc2ccc3c(c2)OC[C@H]3CC(=O)O)c1,102
2,CCN(CC)C(=S)SSC(=S)N(CC)CC [Disulfiram],107 ± 8.5
3,O=C(CCCCCN1C(=O)c2cccc3cccc(c23)C1=O)NO [Scriptaid],75.9 ± 12
4,CCN(CC)CCOC(=O)C(Cc1cccc2ccccc12)CC1CCCO1 (configuration not stated) [Nafronyl oxalate],111
5,CC(C)NCC(O)COc1ccc(COCCOC(C)C)cc1 (racemic) [Bisoprolol fumarate],101
6,CC(C)NCC(O)COc1ccc(COCCOC(C)C)cc1 (racemic) [(±)-Bisoprolol hemifumarate],98.4
7,NC(=O)N1C(=O)/C(=C(\O)c2cccs2)c2cc(Cl)ccc21 [Tenidap],117
8,COc1ccc(-c2nc(-c3ccc(-c4cccc(Cl)c4)o3)[nH]c2-c2ccc(OC)cc2)cc1 [Neurodazine],109
9,CC1(C)S[C@@H]2[C@H](NC(=O)C(C(=O)O)c3ccccc3)C(=O)N2[C@H]1C(=O)O (some centres not stated) [Carbenicillin disodium],98.4
10,C[C@H](N)[C@H](O)c1cccc(O)c1 [Metaraminol bitartrate],94.8
11,Cc1ccccc1OCC(O)CO (configuration not stated) [Mephenesin],98.7
12,CS(=O)(=O)c1ccc(-c2cc(Br)sc2-c2ccc(F)cc2)cc1,98.9
13,O=C1CN(/N=C/c2ccc([N+](=O)[O-])o2)C(=O)N1 [Nitrofurantoin],98.6
14,CC(C)N(CCCNC(=O)Nc1ccc(C(C)(C)C)cc1)C[C@H]1O[C@@H](n2cc(Br)c3c(N)ncnc32)[C@H](O)[C@@H]1O,111
15,"S=c1ccss1 [1,2-Dithiole-3-thione]",115
16,Cc1nc2sccn2c(=O)c1CCN1CCC(=C(c2ccccc2)c2ccc(F)cc2)CC1,106
17,CC(C)=CCC/C(C)=C/CC/C(C)=C/CO [Farnesol],103
18,O=C1Nc2ccc([N+](=O)[O-])cc2C1=O [5-Nitroisatin],104
19,Cc1cc(NS(=O)(=O)c2ccc(N)cc2)no1 [Sulfamethoxazole],102
20,CN[C@@H]1[C@@H](O)[C@@H](O[C@@H]2[C@@H](O)[C@H](O[C@H]3OC(CN)=CC[C@H]3N)[C@@H](N)C[C@H]2N)OC[C@]1(C)O [Sisomicin sulfate],99.5
21,CC1(C)S[C@@H]2[C@H](NC(=O)[C@H](C(=O)O)c3ccsc3)C(=O)N2[C@H]1C(=O)O [Ticarcillin sodium],105
22,CCOC(=O)n1ccn(C)c1=S [Carbimazole],97.7
23,CC(C)[C@H]1c2ccc(F)cc2CC[C@@]1(CCN(C)CCCc1nc2ccccc2[nH]1)OC(=O)C1CC1 [NNC 55-0396 dihydrochloride],55.5
24,COc1cc(O)c2c(c1)C(=O)c1cc(C)cc(O)c1C2=O [Rheochrysidin (Physcione)],98
